Hit rate of the full screen: of about 310,000 compounds, about 2,200 (0.71%) showed an effect of 50% or more. Effects have a minus sign here. Some of the results follow.
molecular target: human ether-à-go-go-related gene (hERG) potassium channel (human, UniProt Q12809); test: primary screen, population patch clamp on CHO cells stably expressing hERG
Sequence (Q12809 whole entry, looked up): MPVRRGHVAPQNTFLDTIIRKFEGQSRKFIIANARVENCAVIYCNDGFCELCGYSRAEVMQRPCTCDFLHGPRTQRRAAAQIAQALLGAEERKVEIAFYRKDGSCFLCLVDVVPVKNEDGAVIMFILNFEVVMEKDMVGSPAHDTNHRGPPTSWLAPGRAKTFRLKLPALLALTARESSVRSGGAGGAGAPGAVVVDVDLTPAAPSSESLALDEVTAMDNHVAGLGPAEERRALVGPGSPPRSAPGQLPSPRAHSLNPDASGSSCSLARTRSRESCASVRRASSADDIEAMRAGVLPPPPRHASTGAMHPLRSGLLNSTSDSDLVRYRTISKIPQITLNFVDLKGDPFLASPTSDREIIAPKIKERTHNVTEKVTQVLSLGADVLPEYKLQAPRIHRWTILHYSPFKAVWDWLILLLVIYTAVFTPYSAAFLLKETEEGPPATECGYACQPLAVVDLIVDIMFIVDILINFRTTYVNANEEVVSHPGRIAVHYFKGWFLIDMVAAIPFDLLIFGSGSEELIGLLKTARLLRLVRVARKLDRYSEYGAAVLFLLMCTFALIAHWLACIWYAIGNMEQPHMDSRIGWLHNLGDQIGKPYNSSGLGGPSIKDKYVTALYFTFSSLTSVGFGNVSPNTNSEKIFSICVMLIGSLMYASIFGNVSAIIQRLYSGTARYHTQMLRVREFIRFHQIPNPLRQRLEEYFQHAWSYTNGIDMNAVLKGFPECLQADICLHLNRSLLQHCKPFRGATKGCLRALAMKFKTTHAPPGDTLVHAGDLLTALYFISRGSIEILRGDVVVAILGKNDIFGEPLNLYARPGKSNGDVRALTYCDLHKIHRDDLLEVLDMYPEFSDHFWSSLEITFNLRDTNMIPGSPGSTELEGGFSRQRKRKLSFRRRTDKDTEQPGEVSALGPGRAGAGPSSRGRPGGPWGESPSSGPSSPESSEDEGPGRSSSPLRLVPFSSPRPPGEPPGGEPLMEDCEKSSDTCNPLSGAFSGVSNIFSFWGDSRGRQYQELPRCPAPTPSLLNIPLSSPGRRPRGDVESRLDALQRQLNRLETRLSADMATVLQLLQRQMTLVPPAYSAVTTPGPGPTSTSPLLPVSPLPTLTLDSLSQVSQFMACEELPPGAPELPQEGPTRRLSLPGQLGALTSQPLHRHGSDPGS

SMILES	hERG current change (%, negative = inhibition) at 1uM
CCc1ccc(S(=O)(=O)NCc2cccs2)cc1	3.76%
c1cncc(CNc2ncn[nH]2)c1	12%
Cc1cc(C)cc(OCC(=O)NCc2nc(-c3ccccc3)no2)c1	6.88%
COc1ccc(C(=O)NNC(=O)c2ccc(C)cc2)cc1S(=O)(=O)N1CCCC1	6.7%
CCOC(=O)C1(CC2CCCCO2)CCN(C(=O)Nc2ccc3c(c2)OCO3)CC1 (stereo not shown)	15.5%
COc1ccc(NC(=O)CSc2n[nH]c(CNc3cccc(C)c3)n2)cc1	8.44%
COC(=O)c1ccc(N2CCN(S(=O)(=O)c3c(C)cc(C)cc3C)CC2)c([N+](=O)[O-])c1	16%
Cc1ccc(C(=O)NC2CCN(CCCC(=O)c3ccc(F)cc3)CC2)cc1	-72.9%
CC(C(=O)Nc1ccc2c(c1)OCO2)c1ccc([N+](=O)[O-])cc1 (stereo not shown)	8.93%
CC(/C=N/NC(=O)c1ccccc1F)c1ccccc1 (stereo not shown)	15.7%
COc1ccccc1OCC(=O)NNC(=O)C(=O)N1CCCC1	10%
N#CCCn1cc(/C=N/N=C2\NC(=O)C(CC(=O)O)S2)c(-c2ccc(F)cc2)n1 (stereo not shown)	14.3%
Cc1ccc(NC(=O)COC(=O)c2ccn(C)n2)cc1	7.01%
Cc1ccc(NC(=S)Nc2ccccn2)cc1C	9.72%
CC(C)Cn1c(NCCN(C)C)nc2c1c(=O)[nH]c(=O)n2C	14%
O=C(CNC(=O)c1ccccc1Br)NCCSc1ccc(Br)cc1	-4.76%
COc1ccccc1NC(=O)Cn1nc(C(F)(F)F)c2c1CCCC2	-1.98%
COc1cc(/C=N/NC(N)=O)ccc1OC(=O)c1cccs1	2.52%
CCCN(CC1CC1)C(=O)CSc1nnc(-c2cc(-c3cccs3)nc3ccccc23)o1	6.71%
CC1(C)CC(=O)C(C=NCC2CCN(C(=O)Cc3ccccc3)CC2)=C(O)C1	4.67%
O=C(C#Cc1ccccc1)c1ccco1	12.2%
COCCN1C(=O)C(CC(=O)Nc2ccccc2)SC1=Nc1ccc(OC)cc1 (stereo not shown)	12.6%
CCC(C)N(C(=O)c1csnn1)C(C(=O)NCc1ccc(F)cc1)c1ccccc1 (stereo not shown)	7.54%

SMILES	hERG current change (%, negative = inhibition) at 1uM
CCOC(=O)C1=C(CSCC(=O)OC)NC(=O)NC1c1cc(C)ccc1C (stereo not shown)	-4.49%
O=C(Cc1ccc(Cl)cc1)NCCCNC(=O)c1cccnc1	19.9%
O=C(O)c1cn[nH]c1-n1cnnn1	0.974%
COc1cccc2c3c(c(=O)[nH]c12)CCC(C)(C)O3	12.4%
O=C(c1ccoc1)N1CCCC(Nc2ccc(F)c(F)c2)C1 (stereo not shown)	15.6%
O=C(NCc1ccccc1F)c1ccncc1	14.5%
CN1CCN(c2oc(-c3ccco3)nc2S(=O)(=O)c2ccccc2)CC1	8.77%
O=C(Nc1ccc(F)cc1)C(c1ccccc1)N1CCN(S(=O)(=O)c2c(F)cccc2F)CC1 (stereo not shown)	9.94%
COc1ccc(C)cc1NC(=O)CCC(=O)Nc1nnc(C(F)(F)F)s1	24.6%
CCOC(=O)N1CCN(C(=O)CSc2nc3c(cnn3-c3ccc(Cl)cc3)c(=O)[nH]2)CC1	7.58%
COC(=O)C1=CN(c2ccc(OC)cc2)C=C(C(=O)OC)C1c1cccc(F)c1	13.7%
O=C(Oc1ccc(=O)n(-c2ccccc2)n1)c1ccccc1	0.0788%
CC1(C)CC(=O)c2cc(OCC(=O)N3CCOCC3)ccc2O1	3.21%
CCCCn1c(/N=C/c2cc(OC)ccc2O)nc2ccccc21	15%
Cc1csc(NC(=O)CSc2nnc(NC(=O)COc3ccc(Cl)cc3)s2)n1	27.6%
Cc1csc(OCC(=O)Nc2ccc(C)c(C)c2)n1	9.82%
CCN(Cc1ccccc1)Cc1nc(CCc2ccccc2)no1	4.83%
CN(C)C(=O)Oc1ccc[n+](C)c1.[Br-]	-0.301%
CC(=O)Nc1ccc(CC(=O)N2CCN(Cc3ccccc3)CC2)cc1	11.7%
NC(=S)N=Nc1c(O)n(CCCl)c2ccccc12	5.57%
Cc1cc(C)n2cc(CSc3ccccn3)nc2n1	14.4%
O=C1c2ccccc2C(=O)N1CCc1nc2ccccc2c(=O)n1Cc1ccco1	-21.8%
O=S(=O)(c1ccccc1)N1CCN(C(=S)Nc2ccccc2)CC1	11.5%

From PMC4336329 (PLoS ONE, 2015)
